Experimental data published in PMC4635315 (2015).

How the values were obtained:
BARTL1 (CCDC104/CFAP36) = BARTL1 (CCDC104/CFAP36) (Homo sapiens, UniProt Q96G28); test: fluorescence polarization
[1] = target: BARTL1 (CCDC104/CFAP36) 1-133 (Homo sapiens, UniProt Q96G28); test: fluorescence polarization

Chain of BARTL1 (CCDC104/CFAP36) (Q96G28 whole entry): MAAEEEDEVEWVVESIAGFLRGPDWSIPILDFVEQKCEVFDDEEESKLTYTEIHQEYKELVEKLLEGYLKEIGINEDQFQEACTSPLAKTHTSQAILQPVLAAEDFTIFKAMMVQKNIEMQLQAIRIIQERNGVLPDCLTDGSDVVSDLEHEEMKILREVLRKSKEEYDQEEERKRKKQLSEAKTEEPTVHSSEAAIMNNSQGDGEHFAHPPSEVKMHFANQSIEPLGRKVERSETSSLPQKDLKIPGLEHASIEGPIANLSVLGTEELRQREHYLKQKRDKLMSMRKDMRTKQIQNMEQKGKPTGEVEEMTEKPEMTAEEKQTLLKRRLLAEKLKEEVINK

Kd (BARTL1 (CCDC104/CFAP36)): 1 µM
Kd [1]: 0.43 µM
B1: Arl3 (protein)
chain: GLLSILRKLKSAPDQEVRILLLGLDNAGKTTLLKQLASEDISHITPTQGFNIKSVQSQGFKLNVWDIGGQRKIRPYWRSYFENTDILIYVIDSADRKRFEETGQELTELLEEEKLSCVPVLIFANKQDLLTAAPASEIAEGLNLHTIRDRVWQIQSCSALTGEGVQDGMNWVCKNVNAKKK
modifications: mant-GppNHp-bound Arl3
